# Where “and” joins values, the source holds several entries; their conditions need not be identical. Equal values may be shown once. Where a name gives a salt, the structure may show the parent alone. Among all 5,800 compounds or so, about 620 (11%) showed activity.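 Rule for the calls: active = score above a cut-off or among the top three wells of a plate; in these data no inactive exceeds 0.85.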 Only a part is listed here, and it is no random draw.
# Tested on: primary human hepatic stellate cells (donor 1)
# Experiment: scaled lipid accumulation score (0 = DMSO-like, 1 = nortriptyline-like); higher = stronger HSC inactivation (lipid re-accumulation), active = hit call of the paper
# Conditions: 48 h
# [1] = library stock concentration: 3.33 mM
# [2] = library stock concentration: 10 mM
# [3] = library stock concentration: 1 mM
# [4] = library stock concentration: 2 mM
compound,measurement,setting,value
CN[C@H]1CC[C@@H](c2ccc(Cl)c(Cl)c2)c2ccccc21 [Sertraline HCl],scaled lipid accumulation score,[1],inactive: 0.103
same,scaled lipid accumulation score,[2],inactive: 0.033
CN[C@H]1CC[C@@H](c2ccc(Cl)c(Cl)c2)c2ccccc21 [Sertraline],scaled lipid accumulation score,[2],inactive: 0.147 and inactive: 0.63
CN[C@H]1CC[C@@H](c2ccc(Cl)c(Cl)c2)c2ccccc21 [Sertraline hydrochloride],scaled lipid accumulation score,library stock concentration: 5.8 mM,inactive: 0.777
same,scaled lipid accumulation score,[2],inactive: ≤ -0.055 and inactive: 0.281 and inactive: 0.318
COCCNC(=O)COc1ccc(OCCNC[C@H](O)COc2ccccc2)cc1 [ZD 7114 hydrochloride],scaled lipid accumulation score,[2],inactive: 0.134
CCN(CC)CCCCNc1ncc2cc(-c3cc(OC)cc(OC)c3)c(NC(=O)NC(C)(C)C)nc2n1,scaled lipid accumulation score,[1],active: 1.34
same,scaled lipid accumulation score,[2],active: 1.01
CC(C)ON(CC(=O)NO)S(=O)(=O)c1ccc(-c2ccccc2)cc1,scaled lipid accumulation score,[3],inactive: ≤ 0
COc1cccc2c1[C@@H]1CN(CCCCn3c(=O)[nH]c4c(sc5ncc(-c6ccccc6)nc54)c3=O)C[C@@H]1CO2.Cl [Fiduxosin hydrochloride],scaled lipid accumulation score,[2],active: 0.863
Cc1[nH]c(/C=C2/C(=O)Nc3ccc(S(=O)(=O)N(C)c4cccc(Cl)c4)cc32)c(C)c1C(=O)N1CCN(C)CC1,scaled lipid accumulation score,[4],active: 0.927
same,scaled lipid accumulation score,[2],active: 1.14
CC(CNC1CCCCC1)OC(=O)c1ccccc1 (stereo not given) [Hexylcaine hydrochloride],scaled lipid accumulation score,,inactive: ≤ 0
Nc1ccc(S(=O)(=O)Nc2nccs2)cc1 [Sulfathiazole],scaled lipid accumulation score,,inactive: ≤ 0
same,scaled lipid accumulation score,[1],inactive: ≤ 0
same,scaled lipid accumulation score,library stock concentration: 7.8 mM,inactive: ≤ 0
same,scaled lipid accumulation score,[2],inactive: 0.008 and inactive: 0.022
O=C(O)c1cccc(-c2noc(-c3ccccc3F)n2)c1 [Ataluren (PTC124)],scaled lipid accumulation score,[1],inactive: ≤ 0
same,scaled lipid accumulation score,[2],inactive: ≤ 0
Cc1ccc(NC(=O)CCCCCC(=O)Nc2ccccc2N)cc1 [Pimelic Diphenylamide 106],scaled lipid accumulation score,[3],inactive: ≤ 0
O=C1C(Cl)=C(N2CCOCC2)C(=O)N1c1ccc(Cl)c(Cl)c1,scaled lipid accumulation score,[1],inactive: ≤ -0.009
same,scaled lipid accumulation score,[2],inactive: ≤ 0
CCN(CC)CCCCCCCCOC(=O)c1cc(OC)c(OC)c(OC)c1,scaled lipid accumulation score,library stock concentration: 12.6 mM,active: 1.02
Cc1ccc(-c2cc(C(F)(F)F)nn2-c2ccc(S(N)(=O)=O)cc2)cc1 [Celecoxib],scaled lipid accumulation score,[1],inactive: ≤ 0
same,scaled lipid accumulation score,library stock concentration: 5.2 mM,inactive: 0.389 and inactive: ≤ 0
CC(C)[N+]1(C)[C@@H]2CC[C@H]1C[C@@H](OC(=O)C(CO)c1ccccc1)C2 (stereo not given in full) [Ipratropium Bromide],scaled lipid accumulation score,[1],inactive: ≤ 0
same,scaled lipid accumulation score,[2],inactive: ≤ 0 and inactive: 0.061
CC(C)[N+]1(C)[C@@H]2CC[C@H]1C[C@@H](OC(=O)C(CO)c1ccccc1)C2 (stereo not given in full) [Ipratropium bromide],scaled lipid accumulation score,,inactive: ≤ 0
same,scaled lipid accumulation score,library stock concentration: 4.9 mM,inactive: 0.021
same,scaled lipid accumulation score,[2],inactive: ≤ 0 and inactive: ≤ -0.07
O=C(O)C1=C(CSc2nnnn2CS(=O)(=O)O)CS[C@@H]2[C@H](NC(=O)[C@H](O)c3ccccc3)C(=O)N12 [Cefonicid sodium],scaled lipid accumulation score,library stock concentration: 3.5 mM,inactive: ≤ 0
CCNC(=O)c1noc(-c2cc(C(C)C)c(O)cc2O)c1-c1ccc(CN2CCOCC2)cc1,scaled lipid accumulation score,[1],active: 0.91
CCOC(=O)[C@@H](C)Oc1cccc2c(=O)n(CC(=O)Nc3ccc4c(c3)OCCO4)ccc12,scaled lipid accumulation score,[2],inactive: 0.249
CCOC1O[C@H]([C@@H](COCc2ccccc2)OCc2ccccc2)[C@H](OCc2ccccc2)[C@H]1O (stereo not given in full) [Tribenoside],scaled lipid accumulation score,,inactive: ≤ 0
C=C[C@]1(C)C[C@@H](OC(=O)CSC(C)(C)CNC(=O)[C@H](N)C(C)C)[C@]2(C)[C@H](C)CC[C@]3(CCC(=O)[C@H]32)[C@@H](C)[C@@H]1O [Valnemulin HCl],scaled lipid accumulation score,[1],inactive: ≤ 0
same,scaled lipid accumulation score,[2],inactive: 0.491
Cc1c(-c2ccc(O)cc2)n(Cc2ccc(OCCN3CCCCCC3)cc2)c2ccc(O)cc12 [Bazedoxifene HCl],scaled lipid accumulation score,[1],inactive: 0.681
same,scaled lipid accumulation score,[2],inactive: 0.477
CC(=O)Nc1c(I)c(C(=O)N[C@H]2C(O)O[C@H](CO)[C@@H](O)[C@@H]2O)c(I)c(N(C)C(C)=O)c1I (stereo not given in full) [Metrizamide],scaled lipid accumulation score,,inactive: 0.054
NC[C@H](O)c1ccc(O)c(O)c1 [Noradrenaline bitartrate monohydrate],scaled lipid accumulation score,[1],inactive: 0.001
same,scaled lipid accumulation score,[2],inactive: ≤ 0
NC[C@H](O)c1ccc(O)c(O)c1 [Norepinephrine],scaled lipid accumulation score,[2],inactive: ≤ 0
same,scaled lipid accumulation score,library stock concentration: 11.8 mM,inactive: 0.008
CCN(CC)CCNC(=O)c1ccc(N)cc1 [Procainamide HCl],scaled lipid accumulation score,[1],inactive: ≤ 0
same,scaled lipid accumulation score,[2],inactive: ≤ -0.001
CCN(CC)CCNC(=O)c1ccc(N)cc1 [Procainamide hydrochloride],scaled lipid accumulation score,,inactive: 0.054
same,scaled lipid accumulation score,[2],inactive: ≤ 0
CCN(CC)CCNC(=O)c1ccc(N)cc1 [Pronestyl],scaled lipid accumulation score,[2],inactive: ≤ 0
c1ccc2c(c1)CC(N1CCN(c3cccc4c3OCCO4)CC1)C2,scaled lipid accumulation score,[2],inactive: 0.056
CC(=O)c1cc2ccccc2oc1=O [3-Acetylcoumarin],scaled lipid accumulation score,,inactive: ≤ 0
CC[C@H](CO)Nc1nc(Nc2cccc(-c3ccccn3)c2)c2ncn(C(C)C)c2n1 [(R)-DRF053 dihydrochloride],scaled lipid accumulation score,[2],inactive: 0.134
CCCCCCOc1ccccc1C(N)=O [Exalamide],scaled lipid accumulation score,[2],inactive: ≤ -0.027
Cc1nccn1CC1CCc2c(c3ccccc3n2C)C1=O (stereo not given) [Ondansetron],scaled lipid accumulation score,library stock concentration: 6.8 mM,inactive: ≤ 0
same,scaled lipid accumulation score,[2],inactive: 0.202
Cc1nccn1CC1CCc2c(c3ccccc3n2C)C1=O (stereo not given) [Ondansetron Hydrochloride],scaled lipid accumulation score,,inactive: ≤ 0
Cc1nccn1CC1CCc2c(c3ccccc3n2C)C1=O (stereo not given),scaled lipid accumulation score,[2],inactive: ≤ 0
Cc1nccn1CC1CCc2c(c3ccccc3n2C)C1=O (stereo not given) [Ondansetron HCl],scaled lipid accumulation score,[1],inactive: ≤ 0
same,scaled lipid accumulation score,[2],inactive: ≤ 0
NC(=O)c1cc[n+](CC2=C(C(=O)[O-])N3C(=O)[C@@H](NC(=O)Cc4cccs4)[C@H]3SC2)cc1 [Cefalonium],scaled lipid accumulation score,,inactive: ≤ 0
"O=C1C(O)=C(O)C(=O)C(O)=C1O [Tetrahydroxy-1,4-quinone monohydrate]",scaled lipid accumulation score,,inactive: ≤ 0
O=C1C(O)=C(O)C(=O)C(O)=C1O [Tetroquinone],scaled lipid accumulation score,[2],inactive: 0.14
same,scaled lipid accumulation score,library stock concentration: 11.6 mM,inactive: ≤ 0
O=c1c2ccccc2[nH]c(=S)n1CCN1CCC(=C(c2ccc(F)cc2)c2ccc(F)cc2)CC1,scaled lipid accumulation score,library stock concentration: 80 uM,inactive: ≤ -0.001
same,scaled lipid accumulation score,library stock concentration: 400 uM,inactive: ≤ -0.001
same,scaled lipid accumulation score,[4],inactive: ≤ -0.001
same,scaled lipid accumulation score,[2],inactive: ≤ -0.001
O=c1c2ccccc2[nH]c(=S)n1CCN1CCC(=C(c2ccc(F)cc2)c2ccc(F)cc2)CC1 [Diacylglycerol Kinase Inhibitor II],scaled lipid accumulation score,[1],inactive: 0.024
same,scaled lipid accumulation score,[2],inactive: 0.091
CC(=O)NC[C@H]1CN(c2ccc(N3CCOCC3)c(F)c2)C(=O)O1 [Linezolid],scaled lipid accumulation score,[1],inactive: ≤ 0
same,scaled lipid accumulation score,library stock concentration: 5.9 mM,inactive: ≤ -0.006
same,scaled lipid accumulation score,[2],inactive: ≤ 0 and inactive: 0.023
CC(=O)NC[C@H]1CN(c2ccc(N3CCOCC3)c(F)c2)C(=O)O1,scaled lipid accumulation score,[2],inactive: ≤ 0
O=C(NCCCNc1nc(Nc2cccc(NC(=O)N3CCCC3)c2)ncc1I)c1cccs1,scaled lipid accumulation score,[2],active: 1.07
Cc1c2oc3c(C)ccc(C(=O)N[C@@H]4C(=O)N[C@H](C(C)C)C(=O)N5CCC[C@H]5C(=O)N(C)CC(=O)N(C)[C@@H](C(C)C)C(=O)O[C@@H]4C)c3nc-2c(C(=O)N[C@@H]2C(=O)N[C@H](C(C)C)C(=O)N3CCC[C@H]3C(=O)N(C)CC(=O)N(C)[C@@H](C(C)C)C(=O)O[C@@H]2C)c(N)c1=O [Actinomycin D],scaled lipid accumulation score,,inactive: ≤ -0.021
Cc1c2oc3c(C)ccc(C(=O)N[C@@H]4C(=O)N[C@H](C(C)C)C(=O)N5CCC[C@H]5C(=O)N(C)CC(=O)N(C)[C@@H](C(C)C)C(=O)O[C@@H]4C)c3nc-2c(C(=O)N[C@@H]2C(=O)N[C@H](C(C)C)C(=O)N3CCC[C@H]3C(=O)N(C)CC(=O)N(C)[C@@H](C(C)C)C(=O)O[C@@H]2C)c(N)c1=O [Dactinomycin],scaled lipid accumulation score,library stock concentration: 1.6 mM,inactive: 0.047
same,scaled lipid accumulation score,[2],inactive: ≤ 0
Cc1c2oc3c(C)ccc(C(=O)N[C@@H]4C(=O)N[C@H](C(C)C)C(=O)N5CCC[C@H]5C(=O)N(C)CC(=O)N(C)[C@@H](C(C)C)C(=O)O[C@@H]4C)c3nc-2c(C(=O)N[C@@H]2C(=O)N[C@H](C(C)C)C(=O)N3CCC[C@H]3C(=O)N(C)CC(=O)N(C)[C@@H](C(C)C)C(=O)O[C@@H]2C)c(N)c1=O,scaled lipid accumulation score,[2],inactive: ≤ 0
CCSC(N)=Nc1ccc(C(F)(F)F)cc1,scaled lipid accumulation score,[3],inactive: 0.01
COc1ccc2c(c1)c(CC(=O)OCC(=O)O)c(C)n2C(=O)c1ccc(Cl)cc1 [Acemetacin],scaled lipid accumulation score,,inactive: ≤ 0
same,scaled lipid accumulation score,[1],inactive: ≤ 0
same,scaled lipid accumulation score,library stock concentration: 4.8 mM,inactive: ≤ 0
same,scaled lipid accumulation score,[2],inactive: ≤ 0 and inactive: 0.005
COc1ccc2cc3[n+](cc2c1OC)CCc1cc2c(cc1-3)OCO2 [Berberine chloride],scaled lipid accumulation score,,inactive: ≤ 0
same,scaled lipid accumulation score,[2],inactive: ≤ 0
COc1ccc2cc3[n+](cc2c1OC)CCc1cc2c(cc1-3)OCO2 [Berberine HCl],scaled lipid accumulation score,[1],inactive: ≤ 0
same,scaled lipid accumulation score,[2],inactive: ≤ 0
CCCCCCCCCCCCCCCCOC[C@H](COP(=O)([O-])OCC[N+](C)(C)C)OC(=O)CCC [Butanoyl PAF],scaled lipid accumulation score,[3],inactive: ≤ 0
"CC[C@@H]1Cc2cc(O)ccc2C2=C1c1ccc(O)cc1C[C@H]2CC [(R,R)-cis-Diethyl tetrahydro-2,8-chrysenediol]",scaled lipid accumulation score,[2],inactive: ≤ -0.07
Nc1ncnc2c1ncn2[C@@H]1O[C@H](CO)C[C@H]1O [Cordycepin],scaled lipid accumulation score,[2],inactive: 0.004
Cn1sc(=O)n(Cc2ccccc2)c1=O [GSK-3b Inhibitor I],scaled lipid accumulation score,[1],inactive: ≤ 0

# From the supplement of paper PMC9135407
